# Measurements taken from the supplement of paper PMC8728848.
# This is one part of the list.
# Assays:
# Test in all cases: glycan array binding signal (z-score within array); higher = stronger binding
# Conditions in all cases: glycan notation: IUPAC condensed, linker removed
# [1] = target: Fuc(a1-3)[Gal(b1-4)]Glc6S
# In short: (§1)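 The binding signal is a Z-score computed within each array and averaged over linkers. Arrays of the same protein sequence at different concentrations or buffers were also averaged together. Data originate from 3228 arrays in the Consortium for Functional Glycomics database, kept only where the protein sequence was available.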
# [2] = target: Fuc(a1-3)[Gal(b1-4)]GlcNAc
# In short: as §1
# [3] = target: Fuc(a1-3)[Gal(b1-4)]GlcNAc(b1-2)Man
# In short: as §1
# [4] = target: Fuc(a1-3)[Gal(b1-4)]GlcNAc(b1-2)Man(a1-3)[Fuc(a1-3)[Gal(b1-4)]GlcNAc(b1-2)Man(a1-6)]Man(b1-4)GlcNAc(b1-4)GlcNAc
# In short: as §1
# [5] = target: Fuc(a1-3)[Gal(b1-4)]GlcNAc(b1-2)Man(a1-3)[Fuc(a1-3)[Gal(b1-4)]GlcNAc(b1-2)Man(a1-6)]Man(b1-4)GlcNAc(b1-4)[Fuc(a1-6)]GlcNAc
# In short: as §1
# [6] = target: Fuc(a1-3)[Gal(b1-4)]GlcNAc(b1-2)Man(a1-6)[Gal(b1-4)GlcNAc(b1-2)Man(a1-3)]Man(b1-4)GlcNAc(b1-4)GlcNAc
# In short: as §1
# [7] = target: Fuc(a1-3)[Gal(b1-4)]GlcNAc(b1-3)Gal(b1-3)[Fuc(a1-4)]GlcNAc
# In short: as §1
# [8] = target: Fuc(a1-3)[Gal(b1-4)]GlcNAc(b1-3)Gal(b1-4)[Fuc(a1-3)]GlcNAc
# In short: as §1
# [9] = target: Fuc(a1-3)[Gal(b1-4)]GlcNAc(b1-3)Gal(b1-4)[Fuc(a1-3)]GlcNAc(b1-3)Gal(b1-4)[Fuc(a1-3)]GlcNAc
# In short: as §1
# [10] = target: Fuc(a1-3)[Gal(b1-4)]GlcNAc(b1-3)GalNAc
# In short: as §1
# [11] = target: Fuc(a1-3)[Gal(b1-4)]GlcNAc(b1-4)Gal(b1-4)[Fuc(a1-3)]GlcNAc
# In short: as §1
# [12] = target: Fuc(a1-3)[Gal(b1-4)]GlcNAc(b1-4)Gal(b1-4)[Fuc(a1-3)]GlcNAc(b1-4)Gal(b1-4)[Fuc(a1-3)]GlcNAc
# In short: as §1
# [13] = target: Fuc(a1-3)[Gal(b1-4)]GlcNAc(b1-6)GalNAc
# In short: as §1
# [14] = target: Fuc(a1-3)[Gal(b1-4)]GlcNAc(b1-6)[Gal(b1-3)GlcNAc(b1-3)]Gal(b1-4)Glc
# In short: as §1
# [15] = target: Fuc(a1-3)[Gal(b1-4)]GlcNAc6S
# In short: as §1
# [16] = target: Fuc(a1-3)[Gal3S(b1-4)]Glc
# In short: as §1
# [17] = target: Fuc(a1-3)[Gal3S(b1-4)]Glc6S
# In short: as §1
# [18] = target: Fuc(a1-3)[Gal3S(b1-4)]GlcNAc
# In short: as §1
# [19] = target: Fuc(a1-3)[Gal3S(b1-4)]GlcNAc6S
# In short: as §1
# [20] = target: Fuc(a1-3)[GalNAc(b1-4)]GlcNAc
# In short: as §1
# [21] = target: Fuc(a1-3)[GalNAc(b1-4)]GlcNAc6S
# In short: as §1
# Fuc(a1-4)GlcNAc = target: Fuc(a1-4)GlcNAc
# In short: as §1
# Fuc(b1-3)GlcNAc = target: Fuc(b1-3)GlcNAc
# In short: as §1
# Gal(a1-2)Gal = target: Gal(a1-2)Gal
# In short: as §1
# Gal(a1-3)Gal = target: Gal(a1-3)Gal
# In short: as §1
# Gal(a1-3)Gal(b1-3)GlcNAc = target: Gal(a1-3)Gal(b1-3)GlcNAc
# In short: as §1
# [22] = target: Gal(a1-3)Gal(b1-3)GlcNAc(b1-2)Man
# In short: as §1
# [23] = target: Gal(a1-3)Gal(b1-3)GlcNAc(b1-2)Man(a1-3)[Gal(a1-3)Gal(b1-3)GlcNAc(b1-2)Man(a1-6)]Man(b1-4)GlcNAc(b1-4)GlcNAc
# In short: as §1
# [24] = target: Gal(a1-3)Gal(b1-3)GlcNAc(b1-3)GalNAc
# In short: as §1
# [25] = target: Gal(a1-3)Gal(b1-3)GlcNAc(b1-6)GalNAc
# In short: as §1
# [26] = target: Gal(a1-3)Gal(b1-3)[Fuc(a1-4)]GlcNAc(b1-2)Man(a1-3)[Gal(a1-3)Gal(b1-3)[Fuc(a1-4)]GlcNAc(b1-2)Man(a1-6)]Man(b1-4)GlcNAc(b1-4)GlcNAc
# In short: as §1
# Gal(a1-3)Gal(b1-4)Glc = target: Gal(a1-3)Gal(b1-4)Glc
# In short: as §1
# Gal(a1-3)Gal(b1-4)GlcNAc = target: Gal(a1-3)Gal(b1-4)GlcNAc
# In short: as §1
# [27] = target: Gal(a1-3)Gal(b1-4)GlcNAc(b1-2)Man
# In short: as §1
# [28] = target: Gal(a1-3)Gal(b1-4)GlcNAc(b1-2)Man(a1-3)[Gal(a1-3)Gal(b1-4)GlcNAc(b1-2)Man(a1-6)]Man(b1-4)GlcNAc(b1-4)GlcNAc
# In short: as §1
# [29] = target: Gal(a1-3)Gal(b1-4)GlcNAc(b1-3)GalNAc
# In short: as §1
# [30] = target: Gal(a1-3)Gal(b1-4)GlcNAc(b1-6)GalNAc
# In short: as §1
# [31] = target: Gal(a1-3)Gal(b1-4)[Fuc(a1-3)]GlcNAc
# In short: as §1
binder,measurement,setting,value
"LSECtin (Homo sapiens), Q6UXB4 (protein) MDTTRYSKWGGSSEEVPGGPWGRWVHWSRRPLFLALAVLVTTVLWAVILSILLSKASTERAALLDGHDLLRTNASKQTAALGALKEEVGDCHSCCSGTQAQLQTTRAELGEAQAKLMEQESALRELRERVTQGLAEAGRGREDVRTELFRALEAVRLQNNSCEPCPTSWLSFEGSCYFFSVPKTTWAAAQDHCADASAHLVIVGGLDEQGFLTRNTRGRGYWLGLRAVRHLGKVQGYQWVDGVSLSFSHWNQGEPNDAWGRENCVMMLHTGLWNDAPCDSEKDGWICEKRHNC",glycan array binding signal (z-score),[1],-0.078
same,glycan array binding signal (z-score),[2],-0.162
same,glycan array binding signal (z-score),[3],-0.136
same,glycan array binding signal (z-score),[4],0.514
same,glycan array binding signal (z-score),[5],-0.124
same,glycan array binding signal (z-score),[6],-0.477
same,glycan array binding signal (z-score),[7],0.018
same,glycan array binding signal (z-score),[8],-0.128
same,glycan array binding signal (z-score),[9],-0.135
same,glycan array binding signal (z-score),[10],-0.128
same,glycan array binding signal (z-score),[11],-0.072
same,glycan array binding signal (z-score),[12],0.161
same,glycan array binding signal (z-score),[13],-0.13
same,glycan array binding signal (z-score),[14],-0.137
same,glycan array binding signal (z-score),[15],-0.07
same,glycan array binding signal (z-score),[16],-0.136
same,glycan array binding signal (z-score),[17],4.05
same,glycan array binding signal (z-score),[18],0.669
same,glycan array binding signal (z-score),[19],-0.128
same,glycan array binding signal (z-score),[20],-0.152
same,glycan array binding signal (z-score),[21],-0.139
same,glycan array binding signal (z-score),Fuc(a1-4)GlcNAc,-0.206
same,glycan array binding signal (z-score),Fuc(b1-3)GlcNAc,-0.212
same,glycan array binding signal (z-score),Gal(a1-2)Gal,-0.213
same,glycan array binding signal (z-score),Gal(a1-3)Gal,-0.169
same,glycan array binding signal (z-score),Gal(a1-3)Gal(b1-3)GlcNAc,-0.228
same,glycan array binding signal (z-score),[22],-0.124
same,glycan array binding signal (z-score),[23],-0.124
same,glycan array binding signal (z-score),[24],-0.128
same,glycan array binding signal (z-score),[25],-0.136
same,glycan array binding signal (z-score),[26],-0.126
same,glycan array binding signal (z-score),Gal(a1-3)Gal(b1-4)Glc,-0.176
same,glycan array binding signal (z-score),Gal(a1-3)Gal(b1-4)GlcNAc,-0.208
same,glycan array binding signal (z-score),[27],-0.141
same,glycan array binding signal (z-score),[28],-0.131
same,glycan array binding signal (z-score),[29],-0.137
same,glycan array binding signal (z-score),[30],-0.136
same,glycan array binding signal (z-score),[31],-0.219
